± gives the standard deviation of the averaged measurements. This is one part of the list.
Each sequence was assayed on PfAP2-G AP2 domain (GST-tagged) (assay: gcPBM binding intensity (ln(normalized median fluorescence intensity)); higher = stronger DNA binding).
How it was run: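 Binding intensity values are the highest Masliner-normalised natural-log median intensity among replicate spots of either probe orientation. The binding step lasted 1 h in 1× PBS with 1% milk, 0.2 mg/ml BSA, 0.5% salmon testes DNA and 0.03% Triton X-100, using GST-tagged P. falciparum DNA-binding domains expressed in E. coli on an Agilent 4 × 180k array of primer-extended double-stranded 36-bp intergenic genomic probes plus negative controls. Alexa488 anti-GST antibody and a 488 nm scan detected bound protein.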

Sequence | gcPBM binding intensity (ln)
TATTTTTATAATATATGTACATATATATATATATTA [XGTACX_site5343] | 11.2 ± 0.79
ACATATTATATGAATACACACAAAAACTTATCGGTA [CACACA_site3439] | 10.14 ± 0.078
ATAATATCATCAAACGCACACATACATAAATATATT [CACACA_site5230] | 10.1 ± 0.13
ACAGGAAAAAACAATTGTACATGTATATATATATAT [XGTACX_site7677] | 10.8 ± 0.45
ATATATATATATATATGTACATATTTTATTTGAAAT [XGTACX_site7411] | 11.2 ± 0.69
AAAAAAAAAAAAAAAAGTACGTATTTTTTTTAAAAT [XGTACX_site2654] | 11.6 ± 0.91
AAGACAATATATGCAGTGCATATACATACATATATA | 9.88 ± 0.19
GCATAATATACTCTTACACACCATTTCTAAATACAT [CACACA_site4912] | 10.21 ± 0.021
ATGCTATATTAAAAACGTACAAACTGTTTAGAAAAA [XGTACX_site8943] | 11.3 ± 0.88
TTTTTTCTTAAAGACATATATTTATTTGGTAAAACA [XGTACX_negctrl_site243] | 9.81 ± 0.13
GGATATAACAGACACACACACACATATAAATATATT [CACACA_site7866] | 10.2 ± 0.23
AAAAAAATAATTTGTAGTACGATTCAATGAAAAGGC [XGTACX_site1287] | 11.2 ± 0.79
ATACATATATACATATGTACATATATATATATATAT [XGTACX_site8206] | 11 ± 0.55
TTGAAAATGAAAAAATGTACTTAAAAAAAAGGAACA [XGTACX_site8664] | 11.2 ± 0.71
TCTTTGAATTTTTTAACACACACATGGGTGGATATA [CACACA_site8474] | 10 ± 0.2
ATAAAATTGTATAACTGTACATATATATATATATAT [XGTACX_site5596] | 11.1 ± 0.66
CCCACAAAGGAATATACACACATATATATATATATA [CACACA_site4091] | 10.4 ± 0.76
TAAATATTTTTTTAGACACACATATATCTATGATAT [CACACA_site1107] | 9.705 ± 0.049
CAAAATAAAAATTAATGTACATAAAAAATGAATATA [XGTACX_site1085] | 11.2 ± 0.59
CGGACATACATAGGAACATGCAAAATTTTTTATTTT [TGCATGCA_site575] | 9.81 ± 0.099
AATAGAAAAAAAAAATGTACACATATAAAAGCATAT [XGTACX_site6306] | 11.3 ± 1
TATTTACATTTATGTGCACACATTCCATTTGAAAGT [CACACA_site1954] | 10.6 ± 0.35

Sequence | gcPBM binding intensity (ln)
TATTTTCTTTTTCTTGTACACACATAATATGGATGA [CACACA_site8168] | 11.3 ± 0.79
GATATGTTTTCCTAGGTTCATGATGATAGGTAGTTT [XGTACX_negctrl_site217] | 9.93 ± 0.042
TTTGTGGTTACATGTGCACACACTTATTTCGTTCTT [CACACA_site1435] | 10.8 ± 0.35
TGTTAATATATCATTATGTTATAGGTTCAGCTGGGA [CACACA_negctrl_site401] | 9.9 ± 0.11
AATATATAAATTGACACACACATATATACATATATA [CACACA_site1213] | 10.1 ± 0.11
TTTTATGCATGTGAAGTGCAAAATAAAAAATAAAAT [GTGCAC_site9612] | 10.22 ± 0.099
AAGGTGGTTATTAAATGTACACAGACATATACAAAA [XGTACX_site3007] | 11.3 ± 0.77
AGGTAGAAAAAAGACACACACATTATATATATATAT [CACACA_site4367] | 9.97 ± 0.29
ATATGCTACATTATATGTACACACATATACATATAT [XGTACX_site1656] | 11.2 ± 0.69
TAATATAAAGAAATATCAATAATTTGGGCAAATGCC [GTGCAC_negctrl_site621] | 9.905 ± 0.078
TATAAATATAGAATTACACACAATGTTCTATAAATA [CACACA_site7508] | 9.615 ± 0.092
TATATTTGTTAATTTTGTACGTATGGATATACATAA [XGTACX_site5100] | 11.2 ± 0.76
AAAGAATACATATATTGTACATATATATATACCGTT [XGTACX_site6250] | 10.9 ± 0.41
AGAATTAAAATAAAGGTGCATTTTTTTGTTTCATGT | 9.965 ± 0.021
ATAATACAAAACACAAGTACATAAATTAAAAAGATG [XGTACX_site7839] | 11.4 ± 0.7
AATAATATACCTCTTGTGCACATATTAAAAGTTCAT [GTGCAC_site9536] | 10.5 ± 0.2
TTCGTCTTTTTTCTCACACACCCTTTTTATTAAAAG [CACACA_site7225] | 10.4 ± 0.12
AAAAAAAAAGGTACTACACACTATTCTCAATAGAAA [CACACA_site6193] | 11.1 ± 0.86
AATTTCATTTTACTTATCTAATATTTATAATCTTTT [CACACA_negctrl_site636] | 9.86 ± 0.057
TTCATTCATTTTATTACACACAAAAAAAAAAAAAAA [CACACA_site3680] | 10.1 ± 0.6
AGTTATTTTATAGAATATGAATAATTTTACTTTTCA [XGTACX_negctrl_site403] | 9.53 ± 0.12
TATAAATTATTTATCACACATAAAACAAAAATAAGA [CACACA_site5493] | 10.2 ± 0.2

Sequence | gcPBM binding intensity (ln)
TACTTCATATAATTAGCACACAATAATTTCTCATTT [CACACA_site2872] | 10.06 ± 0.042
AATTTTTATATAATTTAACACACATTTCATATAAAA [CACACA_site9018] | 10.1 ± 0.23
TTAGGATATTTATTTCGTACATATATTTTTAATTGT [XGTACX_site582] | 10.8 ± 0.45
TACATATTCCTACAAATGTATAAATTATAAATATTA [XGTACX_negctrl_site30] | 9.59 ± 0.11
AACGATATAGGTACTACACACATTATGTCATCCTAT [CACACA_site7205] | 11.2 ± 0.77
TGTATATGTTTAATTAGTACATATAAAGTAACAATA [XGTACX_site1207] | 11.1 ± 0.82
ATATGAAATATATGTAGTACACATAATTAAAAGTAG [XGTACX_site6490] | 11.7 ± 0.86
ATATATATTAAAAATAGTACATATAATAAAAATCAT [XGTACX_site4265] | 11.1 ± 0.73
AAAAAAAAATAATATACACACTCCAATATAAAAAAT [CACACA_site3958] | 9.73 ± 0.17
TGTGTATTATAAACATGTACATAAAAATACGATATT [XGTACX_site3643] | 11.4 ± 0.72
CGCACTAAAAAACACACACACACACCCATATATATA [CACACA_site4152] | 10.1 ± 0.25
TATTATATTGTTCATTTACACTTTCATTTTAAAAAA [CACACA_negctrl_site260] | 10.2 ± 0.18
ATATAATAACAAAAGGTGCGCATTAAGACAAAAAAA | 10.4 ± 0.3
TTTTTCCCCCTTTTTTTGATTTTTATCTTAATTCTA [TGCATGCA_negctrl_site287] | 9.91 ± 0.31
TATATATATAGACACACACACATATAAATAAATAAA [CACACA_site444] | 10.1 ± 0.13
TTATTTATTTTCATATGTACTTATTTATAGAGGTTG [XGTACX_site5599] | 11.4 ± 0.89
CATACATACATACATACACACATATATATATATATG [CACACA_site1995] | 10.6 ± 0.28
TTTTTTAAAATAATAGGTACACATAAAAAAAAAAAA [XGTACX_site2517] | 11.2 ± 0.89
AATGATGTTGTATTGTTTCGATATAACATCTAATTT [GTGCAC_negctrl_site309] | 9.83 ± 0.24
AAGGATTATTTTAATCGTACATGTGTAAATAATATA [XGTACX_site6177] | 11 ± 0.61
TTTTTTCATTTTTTATTTTTTTATTTTTTACATATT [GTGCAC_negctrl_site137] | 9.56 ± 0.16
TACTTTTTAGGAAAGTGTACAAGCATATAAGGAATA [XGTACX_site2834] | 11.1 ± 0.6

Sequence | gcPBM binding intensity (ln)
TTAAAAAAATATTGAAGTACACACATTATAAACTTT [XGTACX_site3548] | 11.4 ± 0.84
ATATTTTGTTATGTAGATGTTGGTAGGAATTTTGGT [CACACA_negctrl_site1104] | 10.1 ± 0.2
AATAAATAAATAAATAAAACAAAGGGATTACATACA [TGCATGCA_negctrl_site513] | 9.84 ± 0.11
CACAACATATATATATATATATATATATATATGTGT [CACACA_negctrl_site28] | 11.6 ± 1.1
AACATAATCTCATATACACACAAAAATATTGAAATA [CACACA_site7085] | 10.1 ± 0.23
ACAAGTTTATTTGTTGCACACATATAAGTAGAGAAA [CACACA_site8994] | 10.3 ± 0.2
AAAAAAAAAAAACACACACACATAGACCTCCAATAG [CACACA_site3562] | 10.4 ± 0.18
GCTCATATGACAACAACACACAAAAAAATAAAATGA [CACACA_site714] | 10.2 ± 0.28
ATATAATAAAATTAATGTACATATATGTATTATATA [XGTACX_site3283] | 11.2 ± 0.71
TTTCATATATATGAAACACACAAAGGAAAAAAAATT [CACACA_site4144] | 10.3 ± 0.12
TACTATAACAGACATACACACAAAAAAAAAAAAAAA [CACACA_site538] | 9.94 ± 0.3
TAATAATATATTTGTAGTACACAATTTTTTATAACT [XGTACX_site3951] | 11.6 ± 0.89
TGTTATTAAAATATAGTGCATAATTAACCATTATAA [GTGCAC_site9594] | 9.96 ± 0.071
CACACGCACGGACACACACACATATAAAATCTATAT [CACACA_site6428] | 11.2 ± 0.71
TACTTATATACACATGTATATTATATATATAATATA [XGTACX_negctrl_site335] | 10.3 ± 0.36
GAGAGGATAGTTCACAGTACTCAGTAACTCTACGGA [XGTACX_site4875] | 10.8 ± 0.44
ATTTTTTTTTTTTTTTTTTTTTTTTTTTAATCTGGA [CACACA_negctrl_site1347] | 9.68 ± 0.16
ATATTTAACAGGTTAAAAATATAAACAAATAAATAA [CACACA_negctrl_site907] | 10 ± 0.13
AACTCATAGCGGTGTGCACACAAAAAATTAAAAAAA [CACACA_site3033] | 10.9 ± 0.68
AATGTCCTTATTTGCACACACACATATAAGAAATTT [CACACA_site3186] | 10.9 ± 0.72
TATAATAAATCATATGCATGTTGAAAAAAAAAAAAA [TGCATGCA_site923] | 9.74 ± 0.31
ATTTGAGAGTTAACAAAATATTTGGCCATCTTTTAT [XGTACX_negctrl_site447] | 10.01 ± 0.064
